{
  "source": "the supplement of paper PMC8728848",
  "assay_in_all_cases": "glycan array binding signal (z-score within array); higher = stronger binding",
  "details_in_all_cases": "glycan notation: IUPAC condensed, linker removed; mutation: E227G",
  "key": {"Fuc(a1-2)Gal": {"biological_target": "Fuc(a1-2)Gal", "how_it_was_run": "(§1)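 The binding signal is a Z-score computed within each array. Data were drawn from 3228 arrays in the Consortium for Functional Glycomics database, restricted to those with a known protein sequence. Scores were averaged over arrays of the same protein sequence at different concentrations or buffers, and over linkers, and negative values can be taken as non-binding.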"}, "Fuc(a1-2)Gal(b1-3)GalNAc": {"biological_target": "Fuc(a1-2)Gal(b1-3)GalNAc", "how_it_was_run": "as §1"}, "[1]": {"biological_target": "Fuc(a1-2)Gal(b1-3)GalNAc(a1-3)[Fuc(a1-2)]Gal(b1-4)Glc", "how_it_was_run": "as §1"}, "[2]": {"biological_target": "Fuc(a1-2)Gal(b1-3)GalNAc(a1-3)[Fuc(a1-2)]Gal(b1-4)GlcNAc", "how_it_was_run": "as §1"}, "[3]": {"biological_target": "Fuc(a1-2)Gal(b1-3)GalNAc(b1-3)Gal", "how_it_was_run": "as §1"}, "[4]": {"biological_target": "Fuc(a1-2)Gal(b1-3)GalNAc(b1-3)Gal(a1-4)Gal(b1-4)Glc", "how_it_was_run": "as §1"}, "[5]": {"biological_target": "Fuc(a1-2)Gal(b1-3)GalNAc(b1-4)[Neu5Ac(a2-3)]Gal(b1-4)Glc", "how_it_was_run": "as §1"}, "Fuc(a1-2)Gal(b1-3)GlcNAc": {"biological_target": "Fuc(a1-2)Gal(b1-3)GlcNAc", "how_it_was_run": "as §1"}, "[6]": {"biological_target": "Fuc(a1-2)Gal(b1-3)GlcNAc(b1-2)Man(a1-3)[Fuc(a1-2)Gal(b1-3)GlcNAc(b1-2)Man(a1-6)]Man(b1-4)GlcNAc(b1-4)GlcNAc", "how_it_was_run": "as §1"}, "[7]": {"biological_target": "Fuc(a1-2)Gal(b1-3)GlcNAc(b1-2)Man(a1-3)[Fuc(a1-2)Gal(b1-3)GlcNAc(b1-2)Man(a1-6)]Man(b1-4)GlcNAc(b1-4)[Fuc(a1-6)]GlcNAc", "how_it_was_run": "as §1"}, "[8]": {"biological_target": "Fuc(a1-2)Gal(b1-3)GlcNAc(b1-3)Gal(b1-4)Glc", "how_it_was_run": "as §1"}, "[9]": {"biological_target": "Fuc(a1-2)Gal(b1-3)GlcNAc(b1-3)GalNAc", "how_it_was_run": "as §1"}, "[10]": {"biological_target": "Fuc(a1-2)Gal(b1-3)GlcNAc(b1-3)[Fuc(a1-2)Gal(b1-3)GlcNAc(b1-6)]GalNAc", "how_it_was_run": "as §1"}, "[11]": {"biological_target": "Fuc(a1-2)Gal(b1-3)GlcNAc(b1-3)[Gal(b1-4)GlcNAc(b1-6)]Gal(b1-4)Glc", "how_it_was_run": "as §1"}, "[12]": {"biological_target": "Fuc(a1-2)Gal(b1-3)GlcNAc(b1-3)[Neu5Ac(a2-6)Gal(b1-4)GlcNAc(b1-6)]Gal(b1-4)Glc", "how_it_was_run": "as §1"}, "[13]": {"biological_target": "Fuc(a1-2)Gal(b1-3)GlcNAc6S", "how_it_was_run": "as §1"}, "[14]": {"biological_target": "Fuc(a1-2)Gal(b1-3)[Fuc(a1-4)]GlcNAc", "how_it_was_run": "as §1"}, "[15]": {"biological_target": "Fuc(a1-2)Gal(b1-3)[Fuc(a1-4)]GlcNAc(b1-2)Man(a1-3)[Fuc(a1-2)Gal(b1-3)[Fuc(a1-4)]GlcNAc(b1-2)Man(a1-3)]Man(b1-4)GlcNAc(b1-4)GlcNAc", "how_it_was_run": "as §1"}, "[16]": {"biological_target": "Fuc(a1-2)Gal(b1-3)[Fuc(a1-4)]GlcNAc(b1-2)Man(a1-3)[Fuc(a1-2)Gal(b1-3)[Fuc(a1-4)]GlcNAc(b1-2)Man(a1-6)]Man(b1-4)GlcNAc(b1-4)[Fuc(a1-6)]GlcNAc(b1-4)[Fuc(a1-6)]GlcNAc", "how_it_was_run": "as §1"}, "[17]": {"biological_target": "Fuc(a1-2)Gal(b1-3)[Fuc(a1-4)]GlcNAc(b1-3)[Fuc(a1-3)[Gal(b1-4)]GlcNAc(b1-6)]Gal(b1-4)Glc", "how_it_was_run": "as §1"}, "[18]": {"biological_target": "Fuc(a1-2)Gal(b1-3)[Fuc(a1-4)]GlcNAc(b1-3)[Gal(b1-4)GlcNAc(b1-6)]Gal(b1-4)Glc", "how_it_was_run": "as §1"}, "[19]": {"biological_target": "Fuc(a1-2)Gal(b1-4)Fuc(a1-3)]GlcNAc(b1-2)Man(a1-3)[Fuc(a1-2)Gal(b1-4)[Fuc(a1-3)]GlcNAc(b1-2)Man(a1-6)]Man(b1-4)GlcNAc(b1-4)GlcNAc", "how_it_was_run": "as §1"}, "Fuc(a1-2)Gal(b1-4)Glc": {"biological_target": "Fuc(a1-2)Gal(b1-4)Glc", "how_it_was_run": "as §1"}, "Fuc(a1-2)Gal(b1-4)Glc6S": {"biological_target": "Fuc(a1-2)Gal(b1-4)Glc6S", "how_it_was_run": "as §1"}, "Fuc(a1-2)Gal(b1-4)GlcNAc": {"biological_target": "Fuc(a1-2)Gal(b1-4)GlcNAc", "how_it_was_run": "as §1"}, "[20]": {"biological_target": "Fuc(a1-2)Gal(b1-4)GlcNAc(b1-2)Man", "how_it_was_run": "as §1"}, "[21]": {"biological_target": "Fuc(a1-2)Gal(b1-4)GlcNAc(b1-2)Man(a1-3)[Fuc(a1-2)Gal(b1-4)GlcNAc(b1-2)Man(a1-6)]Man(b1-4)GlcNAc(b1-4)GlcNAc", "how_it_was_run": "as §1"}, "[22]": {"biological_target": "Fuc(a1-2)Gal(b1-4)GlcNAc(b1-2)Man(a1-3)[Fuc(a1-2)Gal(b1-4)GlcNAc(b1-2)Man(a1-6)]Man(b1-4)GlcNAc(b1-4)[Fuc(a1-6)]GlcNAc", "how_it_was_run": "as §1"}, "[23]": {"biological_target": "Fuc(a1-2)Gal(b1-4)GlcNAc(b1-2)[Fuc(a1-2)Gal(b1-4)GlcNAc(b1-4)]Man(a1-3)[Fuc(a1-2)Gal(b1-4)GlcNAc(b1-2)Man(a1-6)]Man(b1-4)GlcNAc(b1-4)GlcNAc", "how_it_was_run": "as §1"}, "[24]": {"biological_target": "Fuc(a1-2)Gal(b1-4)GlcNAc(b1-3)Gal(b1-4)GlcNAc", "how_it_was_run": "as §1"}},
  "note": "The other results are listed elsewhere or left out.",
  "data": [
    {"binder": "Epa1-NP-mutant-E227G (Candida glabrata), Q6VBJ0 (protein) MILNPALFLNKCVCIYTTLILLLLTNGGYATSSNDISLASKDPTTFPLGCSPDITTPKKGLSMELYSYDFRKKGSYPCWDAAYLDPNYPRTGYKSHRLLAKVDGVTGNINFYYHATKGCTPQLGHLPASYNYPKPLTMTNFTMLLYGYFRPKVTGFHTFTISADDLLFVNFGAGNAFDCCRRDSSADHFGNYQAYAIWGSKTAKDELTVHLDAGVYYPIRLFYNNRGYDGALSFTFKTESNENTVSDFSEYFFSLDDTEEGCPGLISYDSSCASVKTSKIIGIDYHTETPNENLVPITKTIYHLGIPCTGTTTTPLCGSGFYDPLANKCVTINTSSTSSVTKTTSHTTSKEVSFHSSISSQKTLIPKSIPSPYGPIKSQSIPTEMETSSEISSSEYAFSDVISTPSHSPYTKKHSSLNSSSYTSTVIHSLTSYSISQGIFSTSLSEQNITSKSSTDKFSTATSMSNNITQSSIIISQFSTNNENYTTTSMHTSSDKISTETLNNSISTTTSILFSNSSTILKNNTTIISSDKDTHYHPVNPTIVCSTNKTEIICASITQPSISNSNNHWSSSVLKFNSTTVRSTLPSSAGSNETSINVPFSSSTESNTSTSSTSTSNSKMVRSTLPSSAGSNETSISVPFSSSTESNTSTSSTSTSNSKMVRSTLPSSAGSNETSINVPFSSSTESNTSTSSTSTSNSKTVRSTPFSSAGIIMTSLSQRNNKSASSYASSNSKCYNTADSCRKVHSTPSYLLTSSYTSEGVDYDCSLVSTKLKINDTNCVNNKHTTKSCLKTSVTTTIPTLEIKTARKSSSNTIGLHSYPTSSPNKSISSAPIIGYISSFKTIKTASPSYQTSDLTTITTITSLNNPGSTAVENTHESNDKSRKTSSNDISSKHSVIKETKDAVESSNKSHQTNTLKCSSIIIASSSHNSYESLGGTTLTLTLSKVYSPQNNDTLPFLEISEVNPSRTVLPESSKMMQYLTSTEERNKTARNTIATNIVSISTFHFEGEGNAIRMGYTQLLLMLIGIIVMNIGT", "values": [
      {"measurement": "glycan array binding signal (z-score)", "setting": "Fuc(a1-2)Gal", "value": -0.038},
      {"measurement": "glycan array binding signal (z-score)", "setting": "Fuc(a1-2)Gal(b1-3)GalNAc", "value": -0.185},
      {"measurement": "glycan array binding signal (z-score)", "setting": "[1]", "value": -0.144},
      {"measurement": "glycan array binding signal (z-score)", "setting": "[2]", "value": -0.119},
      {"measurement": "glycan array binding signal (z-score)", "setting": "[3]", "value": -0.129},
      {"measurement": "glycan array binding signal (z-score)", "setting": "[4]", "value": -0.113},
      {"measurement": "glycan array binding signal (z-score)", "setting": "[5]", "value": -0.07},
      {"measurement": "glycan array binding signal (z-score)", "setting": "Fuc(a1-2)Gal(b1-3)GlcNAc", "value": -0.117},
      {"measurement": "glycan array binding signal (z-score)", "setting": "[6]", "value": -0.094},
      {"measurement": "glycan array binding signal (z-score)", "setting": "[7]", "value": -0.223},
      {"measurement": "glycan array binding signal (z-score)", "setting": "[8]", "value": -0.18},
      {"measurement": "glycan array binding signal (z-score)", "setting": "[9]", "value": -0.268},
      {"measurement": "glycan array binding signal (z-score)", "setting": "[10]", "value": -0.09},
      {"measurement": "glycan array binding signal (z-score)", "setting": "[11]", "value": -0.113},
      {"measurement": "glycan array binding signal (z-score)", "setting": "[12]", "value": -0.146},
      {"measurement": "glycan array binding signal (z-score)", "setting": "[13]", "value": -0.031},
      {"measurement": "glycan array binding signal (z-score)", "setting": "[14]", "value": -0.25},
      {"measurement": "glycan array binding signal (z-score)", "setting": "[15]", "value": -0.037},
      {"measurement": "glycan array binding signal (z-score)", "setting": "[16]", "value": -0.132},
      {"measurement": "glycan array binding signal (z-score)", "setting": "[17]", "value": -0.328},
      {"measurement": "glycan array binding signal (z-score)", "setting": "[18]", "value": -0.277},
      {"measurement": "glycan array binding signal (z-score)", "setting": "[19]", "value": 0.147},
      {"measurement": "glycan array binding signal (z-score)", "setting": "Fuc(a1-2)Gal(b1-4)Glc", "value": -0.104},
      {"measurement": "glycan array binding signal (z-score)", "setting": "Fuc(a1-2)Gal(b1-4)Glc6S", "value": -0.068},
      {"measurement": "glycan array binding signal (z-score)", "setting": "Fuc(a1-2)Gal(b1-4)GlcNAc", "value": -0.132},
      {"measurement": "glycan array binding signal (z-score)", "setting": "[20]", "value": -0.202},
      {"measurement": "glycan array binding signal (z-score)", "setting": "[21]", "value": -0.028},
      {"measurement": "glycan array binding signal (z-score)", "setting": "[22]", "value": -0.193},
      {"measurement": "glycan array binding signal (z-score)", "setting": "[23]", "value": -0.042},
      {"measurement": "glycan array binding signal (z-score)", "setting": "[24]", "value": -0.243}
    ]}
  ]
}
